Measured values reported in patent US12662489B2 (Sitryx Therapeutics Limited, priority 2023, dated 2026).
At least one compound was matched to its structure with a doubt left.

Molecular target: T1, MTHFD2 recombinant human enzyme (Homo sapiens, UniProt P13995)
T1 sequence (P13995 36-350): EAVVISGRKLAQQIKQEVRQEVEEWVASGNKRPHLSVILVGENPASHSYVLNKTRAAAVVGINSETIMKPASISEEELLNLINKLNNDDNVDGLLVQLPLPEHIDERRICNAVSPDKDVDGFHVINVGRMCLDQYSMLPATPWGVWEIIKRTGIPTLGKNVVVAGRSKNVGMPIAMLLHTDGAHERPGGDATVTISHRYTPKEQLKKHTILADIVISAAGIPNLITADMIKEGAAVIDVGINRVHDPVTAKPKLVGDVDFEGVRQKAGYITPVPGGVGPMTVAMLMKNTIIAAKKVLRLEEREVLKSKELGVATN
Assay: MTHFD2 inhibition assay (NAD(P)H-Glo luminescence)
Details: selectivity of MTHFD2 inhibition over MTHFD1, band

Compound	MTHFD1/MTHFD2 IC50 ratio
COC[C@H]1CN(c2ccc3c4c(c(=O)oc3c2Cl)CN(C(=O)c2ccc(C(=O)NS(=O)(=O)N(C)C)c(OC3CCC3)c2F)CC4)CCN1C [Example 52, (R)-4-(7-chloro-8-(3-(methoxymethyl)-4-methylpiperazin-1-yl)-5-oxo-1,3,4,5-tetrahydro-2H-chromeno[3,4-c]pyridine-3-carbonyl)-2-cyclobutoxy-N-(N,N-dimethylsulfamoyl)-3-fluorobenzamide]	F (<3)
COC[C@H]1CN(c2cc(C)c3c4c(c(=O)oc3c2C)CN(C(=O)c2ccc(C(=O)NS(=O)(=O)N(C)C)c(N3CC5CC5C3)c2F)CC4)CCN1C (stereo partly drawn) [Example 72, 2-(3-azabicyclo[3.1.0]hexan-3-yl)-N-(N,N-dimethylsulfamoyl)-3-fluoro-4-(8-((R)-3-(methoxymethyl)-4-methylpiperazin-1-yl)-7,10-dimethyl-5-oxo-1,3,4,5-tetrahydro-2H-chromeno[3,4-c]pyridine-3-carbonyl)benzamide]	F (<3)
COC[C@H]1CN(c2cc(C)c3c4c(c(=O)oc3c2C)CN(C(=O)c2ccc(C(=O)NS(=O)(=O)N(C)C)c(N3CCC(F)(F)C3)c2)CC4)CCN1C [Example 82, (R)-2-(3,3-difluoropyrrolidin-1-yl)-N-(N,N-dimethylsulfamoyl)-4-(8-(3-(methoxymethyl)-4-methylpiperazin-1-yl)-7,10-dimethyl-5-oxo-1,3,4,5-tetrahydro-2H-chromeno[3,4-c]pyridine-3-carbonyl)benzamide]	G (^ 3 to 9.0)
COC[C@H]1CN(c2cc(C)c3c4c(c(=O)oc3c2C)CN(C(=O)c2ccc(C(=O)NS(=O)(=O)N(C)C)c(OC3C5CC6CC(C5)CC3C6)c2F)CC4)CCN1C (stereo partly drawn) [Example 90, 2-((adamantan-2-yl)oxy)-N-(N,N-dimethylsulfamoyl)-3-fluoro-4-(8-((R)-3-(methoxymethyl)-4-methylpiperazin-1-yl)-7,10-dimethyl-5-oxo-1,3,4,5-tetrahydro-2H-chromeno[3,4-c]pyridine-3-carbonyl)benzamide]	F (<3)
COC[C@H]1CN(c2cc(C)c3c4c(c(=O)oc3c2C)CN(C(=O)c2ccc(C(=O)NS(=O)(=O)C3(C)CC3)c(N3CCC(F)(F)C3)c2)CC4)CCN1C [Example 81, (R)-2-(3,3-difluoropyrrolidin-1-yl)-4-(8-(3-(methoxymethyl)-4-methylpiperazin-1-yl)-7,10-dimethyl-5-oxo-1,3,4,5-tetrahydro-2H-chromeno[3,4-c]pyridine-3-carbonyl)-N-((1-methylcyclopropyl)sulfonyl)benzamide]	H (>9.0 to 30)
COC[C@H]1CN(c2cc(C)c3c4c(c(=O)oc3c2C)CN(C(=O)c2ccc(C(=O)NS(=O)(=O)N(C)C)c(N3CCCC(F)(F)C3)c2F)CC4)CCN1C [Example 78, (R)-2-(3,3-difluoropiperidin-1-yl)-N-(N,N-dimethylsulfamoyl)-3-fluoro-4-(8-(3-(methoxymethyl)-4-methylpiperazin-1-yl)-7,10-dimethyl-5-oxo-1,3,4,5-tetrahydro-2H-chromeno[3,4-c]pyridine-3-carbonyl)benzamide]	F (<3)
COC[C@H]1CN(c2ccc3c4c(c(=O)oc3c2C)CN(C(=O)c2ccc(C(=O)NS(=O)(=O)N(C)C(C)C)c(OC3CCCC3)c2F)CC4)CCN1C [Example 58, (R)-2-(cyclopentyloxy)-3-fluoro-N-(N-isopropyl-N-methylsulfamoyl)-4-(8-(3-(methoxymethyl)-4-methylpiperazin-1-yl)-7-methyl-5-oxo-1,3,4,5-tetrahydro-2H-chromeno[3,4-c]pyridine-3-carbonyl)benzamide]	F (<3)
COC[C@H]1CN(c2cc(C)c3c4c(c(=O)oc3c2C)CN(C(=O)c2ccc(C(=O)NS(=O)(=O)C3(C)CC3)c(N3CC5CC5C3)c2F)CC4)CCN1C (stereo partly drawn) [Example 71, 2-(3-azabicyclo[3.1.0]hexan-3-yl)-3-fluoro-4-(8-((R)-3-(methoxymethyl)-4-methylpiperazin-1-yl)-7,10-dimethyl-5-oxo-1,3,4,5-tetrahydro-2H-chromeno[3,4-c]pyridine-3-carbonyl)-N-((1-methylcyclopropyl)sulfonyl)benzamide]	F (<3)
COC[C@H]1CN(c2cc(C)c3c4c(c(=O)oc3c2C)CN(C(=O)c2ccc(C(=O)NS(=O)(=O)C3(C)CC3)c(N3CCCC(F)(F)C3)c2F)CC4)CCN1C [Example 76, (R)-2-(3,3-difluoropiperidin-1-yl)-3-fluoro-4-(8-(3-(methoxymethyl)-4-methylpiperazin-1-yl)-7,10-dimethyl-5-oxo-1,3,4,5-tetrahydro-2H-chromeno[3,4-c]pyridine-3-carbonyl)-N-((1-methylcyclopropyl)sulfonyl)benzamide]	G (^ 3 to 9.0)

Next, values leading:

MTHFD1/MTHFD2 IC50 ratio	Compound
H (>9.0 to 30)	COC[C@H]1CN(c2cc(C)c3c4c(c(=O)oc3c2C)CN(C(=O)c2cc(N(C)C)c(C(=O)NS(=O)(=O)N3CCC(C(F)(F)F)CC3)cc2F)CC4)CCN1C [Example 296, (R)-2-(dimethylamino)-5-fluoro-4-(8-(3-(methoxymethyl)-4-methylpiperazin-1-yl)-7,10-dimethyl-5-oxo-1,3,4,5-tetrahydro-2H-chromeno[3,4-c]pyridine-3-carbonyl)-N-((4-(trifluoromethyl)piperidin-1-yl)sulfonyl)benzamide]
H (>9.0 to 30)	COC[C@H]1CN(c2cc(C)c3c4c(c(=O)oc3c2C)CN(C(=O)c2ccc(C(=O)NS(=O)(=O)N3CC5CC5C3)c(OC)c2F)CC4)CCN1C (stereo partly drawn) [Example 156, N-((3-azabicyclo[3.1.0]hexan-3-yl)sulfonyl)-3-fluoro-2-methoxy-4-(8-((R)-3-(methoxymethyl)-4-methylpiperazin-1-yl)-7,10-dimethyl-5-oxo-1,3,4,5-tetrahydro-2H-chromeno[3,4-c]pyridine-3-carbonyl)benzamide]
J (>30)	COC[C@H]1CN(c2cc(Cl)c3c4c(c(=O)oc3c2C)CN(C(=O)c2cc(N(C)C)c(C(=O)NS(=O)(=O)N3CCCC3)cc2F)CC4)CCN1C [Example 247, (R)-4-(10-chloro-8-(3-(methoxymethyl)-4-methylpiperazin-1-yl)-7-methyl-5-oxo-1,3,4,5-tetrahydro-2H-chromeno[3,4-c]pyridine-3-carbonyl)-2-(dimethylamino)-5-fluoro-N-(pyrrolidin-1-ylsulfonyl)benzamide]
J (>30)	CCOc1cc(C(=O)N2CCc3c(c(=O)oc4c(C)c(N5CCN(C)[C@@H](COC)C5)cc(C)c34)C2)c(F)cc1C(=O)NS(=O)(=O)N1CC[C@@H](F)C1 [Example 261, 2-ethoxy-5-fluoro-N-(((R)-3-fluoropyrrolidin-1-yl)sulfonyl)-4-(8-((R)-3-(methoxymethyl)-4-methylpiperazin-1-yl)-7,10-dimethyl-5-oxo-1,3,4,5-tetrahydro-2H-chromeno[3,4-c]pyridine-3-carbonyl)benzamide]
H (>9.0 to 30)	CCOc1cc(C(=O)N2CCc3c(c(=O)oc4c(C)c(N5CCN(C)[C@@H](COC)C5)cc(Cl)c34)C2)c(F)cc1C(=O)NS(=O)(=O)N1CC2(CCC2)C1 [Example 300, (R)-N-((2-azaspiro[3.3]heptan-2-yl)sulfonyl)-4-(10-chloro-8-(3-(methoxymethyl)-4-methylpiperazin-1-yl)-7-methyl-5-oxo-1,3,4,5-tetrahydro-2H-chromeno[3,4-c]pyridine-3-carbonyl)-2-ethoxy-5-fluorobenzamide]
H (>9.0 to 30)	COC[C@H]1CN(c2cc(C)c3c4c(c(=O)oc3c2C)CN(C(=O)c2ccc(C(=O)NS(=O)(=O)N3CCC5(CC3)CC5)c(OC)c2F)CC4)CCN1C [Example 155, (R)-N-((6-azaspiro[2.5]octan-6-yl)sulfonyl)-3-fluoro-2-methoxy-4-(8-(3-(methoxymethyl)-4-methylpiperazin-1-yl)-7,10-dimethyl-5-oxo-1,3,4,5-tetrahydro-2H-chromeno[3,4-c]pyridine-3-carbonyl)benzamide]
